{"source": "PubChem BioAssay AID651711", "about": "(Broad Institute, 2012)", "note": "Hit rate of the full screen: of about 350,000 compounds, about 180 (0.051%) were called active. Inconclusive results, whose numbers are uncertain, are shown with a selection of clear calls.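 How the source made its calls: active means mean replicate inhibition above about 25%, with every replicate also reaching it (limit read from the data, passing the limit was not always enough); inconclusive means only one of those two criteria met; inactive means neither criterion met.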", "data": [{"target": "Protein disulfide-isomerase A6 (Homo sapiens) (UniProt Q15084)", "sequence (Q15084 whole entry, looked up)": "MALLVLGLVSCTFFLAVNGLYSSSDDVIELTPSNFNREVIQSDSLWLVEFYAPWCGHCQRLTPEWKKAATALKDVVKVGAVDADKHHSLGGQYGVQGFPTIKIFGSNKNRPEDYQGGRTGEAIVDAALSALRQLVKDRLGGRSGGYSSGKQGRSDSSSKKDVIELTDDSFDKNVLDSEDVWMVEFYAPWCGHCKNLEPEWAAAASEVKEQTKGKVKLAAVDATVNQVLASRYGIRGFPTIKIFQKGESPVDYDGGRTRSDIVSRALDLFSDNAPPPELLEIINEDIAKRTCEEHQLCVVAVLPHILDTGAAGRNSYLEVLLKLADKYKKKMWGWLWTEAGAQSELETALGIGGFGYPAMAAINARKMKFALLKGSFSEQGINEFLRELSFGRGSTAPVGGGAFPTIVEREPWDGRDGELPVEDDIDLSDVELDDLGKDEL", "assay": "inhibitors of ERp5-driven insulin aggregation, primary screen, biochemical, turbidity, absorbance 650 nm, single point (AID 651711)", "details": "90 min, at 9.99 µM, hits give high values", "values": [{"compound": "O=C(Nc1ccc(C(=O)NN2C(=O)c3ccccc3C2=O)cc1)c1ccccc1", "inhibition": "inconclusive: 44.6%"}, {"compound": "COc1ccc(NC(=O)N(C)C[C@H]2OCCCC[C@H](C)Oc3ccc(NC(=O)c4ccccc4)cc3C(=O)N([C@H](C)CO)C[C@H]2C)cc1", "inhibition": "inactive: 1.97%"}, {"compound": "CN(C)CC(=O)N[C@H]1CC[C@@H](CCNC(=O)C2CCCCC2)O[C@H]1CO", "inhibition": "inconclusive: 30.9%"}, {"compound": "O=C(Oc1coc(CSc2nnc(NC(=O)C3CC3)s2)cc1=O)c1c(F)cccc1F", "inhibition": "inactive: 6.21%"}, {"compound": "CC[n+]1c(/C=C/c2c[nH]c3ccccc23)ccc2cc(C)ccc21", "inhibition": "inactive: 6.83%"}, {"compound": "CCCCNC(=O)c1ccc(/C=C2\\Oc3ccccc3N(C)C2=O)cc1", "inhibition": "inconclusive: 36.7%"}, {"compound": "COc1ccc(NC(=O)CSc2nc(N)cc(=O)[nH]2)cc1S(=O)(=O)N1CCCCC1", "inhibition": "inactive: 14.8%"}, {"compound": "CCCCN=C1NN=C(c2ccc3c(c2)OCCO3)CS1", "inhibition": "inconclusive: 43.2%"}, {"compound": "O=C1c2ccccc2-c2c1cccc2C(=O)N1CCCCCC1", "inhibition": "inconclusive: 29.4%"}, {"compound": "COc1ccc2nc(C)cc(SCC(=O)Nc3c(C)cccc3C)c2c1", "inhibition": "inconclusive: 56.4%"}, {"compound": "CCOc1ccc(NC(=O)CCNS(=O)(=O)c2ccc3c(c2)CCC(=O)N3)cc1", "inhibition": "inconclusive: 50.4%"}, {"compound": "Cc1ccc(S(=O)(=O)Nc2ccc3c(c2)CC(=O)N([C@@H](C)CO)C[C@H](C)[C@H](CN(C)S(=O)(=O)c2c(C)noc2C)O3)cc1", "inhibition": "inactive: -5.8%"}, {"compound": "CCC(=O)N[C@@H]1CC[C@@H](CC(=O)NCc2ccc(OC)cc2)O[C@@H]1CO", "inhibition": "inactive: 2.65%"}, {"compound": "Cc1nc(NC2CCCCC2)c2nnn(Cc3ccccc3Cl)c2n1", "inhibition": "inconclusive: 56.3%"}, {"compound": "CSc1ccccc1NC(=O)CNCCCN1CCOCC1", "inhibition": "inconclusive: 49.4%"}, {"compound": "CNC[C@H]1Oc2ccc(NC(=O)C3CC3)cc2C(=O)N([C@@H](C)CO)C[C@H]1C", "inhibition": "inactive: 14%"}, {"compound": "CNS(=O)(=O)c1ccc(NC(=O)c2ccc(Cl)cc2Cl)cc1", "inhibition": "inconclusive: 27.8%"}, {"compound": "CO[C@@H](CN(C)Cc1ccc2c(c1)OCO2)[C@@H](C)CN(C(=O)c1ccccc1)[C@H](C)CO", "inhibition": "inconclusive: 42.9%"}, {"compound": "CCCC(=O)N1CC2(C1)CN(C(=O)C1CCC1)[C@H](CO)c1[nH]c3cc(OC)ccc3c12", "inhibition": "inactive: 7.37%"}, {"compound": "CCSc1nnc(NC(=O)CN(C)S(=O)(=O)c2ccc(F)cc2)s1", "inhibition": "inconclusive: 37.2%"}, {"compound": "C[C@@H]1CN([C@H](C)CO)C(=O)Cc2cc(NS(=O)(=O)c3cn(C)cn3)ccc2O[C@@H]1CN(C)CC1CC1", "inhibition": "inconclusive: 35%"}, {"compound": "C[C@@H]1CN([C@@H](C)CO)S(=O)(=O)c2ccc(C#Cc3cccnc3)cc2O[C@H]1CN(C)C(=O)CN(C)C", "inhibition": "active: 54.1%"}, {"compound": "Cc1cccc(CN2CCN(Cc3cnn(-c4ccccc4F)c3)CC2CCO)n1", "note": "(configuration not stated)", "inhibition": "inconclusive: 39.4%"}, {"compound": "N#CC(=C1CCCC1)c1nc(-c2cc3ccccc3oc2=O)cs1", "inhibition": "inconclusive: 48.1%"}, {"compound": "CCn1cc(C(=O)O)c(=O)c2cnc(N3CCN(C(=S)NC(=O)c4ccc(F)c(F)c4)CC3)nc21", "inhibition": "inconclusive: 25%"}, {"compound": "CC(OC(=O)c1cccc(S(=O)(=O)Nc2cccc(C(F)(F)F)c2)c1)C(=O)Nc1ccc2c(c1)OCCO2", "note": "(configuration not stated)", "inhibition": "inconclusive: 38.1%"}, {"compound": "C[C@@H]1CN([C@H](C)CO)C(=O)Cc2cc(NC(=O)CCC(F)(F)F)ccc2O[C@@H]1CN(C)Cc1ccc(C(=O)Nc2ccccc2N)cc1", "inhibition": "inactive: 10.5%"}, {"compound": "CCC(=O)N(C)C[C@@H]1Oc2cc(-c3ccccc3F)ccc2S(=O)(=O)N([C@H](C)CO)C[C@@H]1C", "inhibition": "inactive: -6.44%"}, {"compound": "O=[N+]([O-])c1ccc(/C=N/Nc2ncc(-c3ccccc3)cn2)cc1", "inhibition": "inconclusive: 39.4%"}, {"compound": "CCOC(=O)C(=Cc1ccc(Br)cc1)C(=O)OCC", "inhibition": "inactive: 0.652%"}, {"compound": "CN(C)CCCNC(=O)C[C@H]1CC[C@@H]2[C@H](COc3ccc(NC(=O)c4cccc(F)c4)cc3C(=O)N2C)O1", "inhibition": "inactive: -1.66%"}, {"compound": "O=c1[nH]c2cc([N+](=O)[O-])c(NCCO)c([N+](=O)[O-])c2[nH]1", "inhibition": "inconclusive: 42%"}, {"compound": "Cc1cccc(C(=O)c2cn[nH]c2-c2ccc(C)cc2O)c1", "inhibition": "inconclusive: 34.8%"}, {"compound": "C[C@@H]1CN([C@H](C)CO)S(=O)(=O)c2ccc(C3=CCCCC3)cc2O[C@@H]1CN(C)C(=O)c1ccncc1", "inhibition": "inactive: 2.9%"}, {"compound": "COc1ccc(NC(=O)c2ccc3c(SCC(=O)O)c4c(nc3c2)CCCC4)cc1Cl", "inhibition": "inconclusive: 31.2%"}, {"compound": "O=C1/C(=C/c2ccco2)SC(=S)N1CC1CCCO1", "note": "(configuration not stated)", "inhibition": "inactive: 8.21%"}, {"compound": "COC(=O)c1cc(C)nc2c1C(=O)C(=O)C=C2N1CCOCC1", "inhibition": "active: 62.8%"}, {"compound": "CCS(=O)(=O)c1ccc2oc(SCC(=O)NCCc3ccccc3)nc2c1", "inhibition": "inconclusive: 37.6%"}, {"compound": "Cc1ccc(S(=O)(=O)NC(=O)NCCc2ccccc2)cc1", "inhibition": "inconclusive: 44.6%"}, {"compound": "CCCC#Cc1ccc([C@H]2[C@@H](CO)N(C(C)=O)[C@H]2CN(C)C(=O)C2CC2)cc1", "inhibition": "inactive: -0.289%"}, {"compound": "COc1ccc(-c2ccc(NCCN3CCOCC3)nn2)cc1OC", "inhibition": "inactive: 0.94%"}, {"compound": "COc1cnc(-c2ccccc2)nc1Oc1ccc(Cl)cc1C", "inhibition": "inconclusive: 35.3%"}, {"compound": "O=C(O)c1ccc(N2C(=O)c3cccc(Oc4ccc(Cl)cc4)c3C2=O)cc1", "inhibition": "inactive: -5.77%"}, {"compound": "C[C@@H]1CN([C@H](C)CO)C(=O)c2cc(C#CCN(C)C)cnc2O[C@H]1CN(C)Cc1cccc(F)c1", "inhibition": "active: 56.7%"}, {"compound": "COc1cccc(NC(=O)N2CCN(c3nc(-c4cccc(OC)c4)cs3)CC2)c1", "inhibition": "inactive: -1.55%"}, {"compound": "CO[C@H]1CC[C@H]2CCOc3c(C#N)cccc3C(=O)N(C)C[C@H](c3ccccc3)CC(=O)N(C)C[C@H]1O2", "inhibition": "inactive: -0.191%"}, {"compound": "O=C(c1ccncc1)N1CC2(C1)[C@@H](c1ccccc1)[C@@H](CO)N2C(=O)c1ccncc1", "inhibition": "inconclusive: 25.1%"}, {"compound": "Cc1ccc(S(=O)(=O)Nc2cc(C(F)(F)F)ccc2N2CCOCC2)cc1C", "inhibition": "inconclusive: 37%"}, {"compound": "Cc1[nH]c(=O)[nH]c(=O)c1S(=O)(=O)N(CC(C)C)CC(C)C", "inhibition": "inconclusive: 46.6%"}, {"compound": "O=S(=O)(c1ccc(F)cc1)N1CC[C@@H]2[C@@H](CO)Nc3ccc(-c4ccccc4F)cc3[C@@H]21", "inhibition": "inconclusive: 36.4%"}, {"compound": "O=C(c1cccs1)c1coc2ccc(O)c(CN3CCOCC3)c12", "inhibition": "inactive: 2.31%"}, {"compound": "C[C@H]1CN([C@@H](C)CO)S(=O)(=O)c2ccc(C#Cc3ccc(F)cc3)cc2O[C@H]1CN(C)CC1CC1", "inhibition": "inconclusive: 44.6%"}, {"compound": "Cc1cccc(C(C)C)c1NC(=O)CSc1nncn1C", "inhibition": "inconclusive: 44.9%"}, {"compound": "O=C(C[C@H]1C[C@H]2c3cc(NC(=O)Nc4ccc(F)cc4)ccc3O[C@H]2[C@H](CO)O1)NC1CCCCC1", "inhibition": "inactive: 2.26%"}, {"compound": "CCOc1cc(CNCCCN2CCOCC2)cc(Br)c1OCc1ccccc1Cl", "inhibition": "inactive: 0.371%"}, {"compound": "O=C1CNC(=O)/C1=C\\c1ccc(O)cc1", "inhibition": "inconclusive: 36.7%"}, {"compound": "Nc1cc2nn(-c3ccccc3)nc2cc1Cl", "inhibition": "inconclusive: 36.3%"}, {"compound": "CCCNC(=O)N1C[C@H]2[C@@H](c3ccccc31)[C@H](CO)N2Cc1ccc(OC)cc1", "inhibition": "inconclusive: 46.2%"}, {"compound": "CCOC(=O)c1cnc2c(c(C)nn2CC)c1NCCN1CCOCC1", "inhibition": "inconclusive: 42.2%"}, {"compound": "COC(=O)c1c(NC(=O)CS(=O)(=O)c2ccccc2)sc(C)c1C", "inhibition": "inactive: -4.15%"}, {"compound": "COc1cccc(C2=NN(C(=O)c3ccco3)C(O)(C(F)(F)F)C2)c1", "note": "(configuration not stated)", "inhibition": "inactive: 2.4%"}, {"compound": "Cc1ccc(-c2ccc3c(c2)O[C@H](CN(C)C(=O)Nc2ccc(C(F)(F)F)cc2)[C@H](C)CN([C@@H](C)CO)S3(=O)=O)cc1", "inhibition": "inactive: 1%"}, {"compound": "CCSC1=NN2CCS(=O)(=O)N=C2S1", "inhibition": "inconclusive: 38.2%"}, {"compound": "Cc1ccc(CSCC(=O)Nc2ccccc2F)cc1", "inhibition": "inactive: -2.19%"}, {"compound": "CCOC(=O)C1=Nc2cccc3c(O)ccc1c23", "inhibition": "inactive: 0.691%"}, {"compound": "O=C1NC[C@H](CCCCN2C[C@H](Cc3ccccc3)N(CCC3CCCCC3)C(=O)C2=O)N(CCc2ccccc2)C1=O", "inhibition": "inactive: 1.37%"}, {"compound": "CC(C)NC(=O)N1[C@@H](CO)[C@@H](c2ccccc2)C12CN(C(=O)Cc1ccccc1)C2", "inhibition": "inactive: -5.7%"}, {"compound": "O=C1CCCCC1C(O)(C(=O)c1ccccc1)c1ccccc1", "note": "(configuration not stated)", "inhibition": "inactive: -2.25%"}, {"compound": "CN(C)N(C(=O)c1cc(-c2cccs2)nn1-c1ccccc1)C1CCS(=O)(=O)C1", "note": "(configuration not stated)", "inhibition": "inconclusive: 25.2%"}, {"compound": "C[C@@H]1CN([C@H](C)CO)C(=O)Cc2cc(NC(=O)c3ccncc3)ccc2O[C@H]1CN(C)S(=O)(=O)c1cn(C)cn1", "inhibition": "active: 76.6%"}, {"compound": "COc1ccc([C@H]2C[C@@H](O)C[C@@H](CCn3cc(-c4ccccc4)nn3)O2)cc1", "inhibition": "inconclusive: 46.6%"}, {"compound": "COc1ccc(S(=O)(=O)N2CCC(C(=O)NCc3ccccc3)CC2)cc1OC", "inhibition": "inactive: -3.7%"}, {"compound": "CC(NC(=O)CSc1ncccn1)c1ccc2c(c1)OCO2", "note": "(configuration not stated)", "inhibition": "inactive: 0.85%"}, {"compound": "CO[C@H]1CN(C)C(=O)c2ccc(NC(=O)C3CCC3)cc2OC[C@@H](C)N(Cc2ccccn2)C[C@H]1C", "inhibition": "inactive: -2.1%"}, {"compound": "C[C@@H]1CN([C@H](C)CO)C(=O)c2cccc(NC(=O)Nc3ccc4c(c3)OCO4)c2O[C@H]1CN(C)Cc1ccc(-c2ccccc2)cc1", "inhibition": "inconclusive: 2.69%"}, {"compound": "C=CCN1C(=O)C2(/C(=C(\\O)c3ccc4c(c3)OCCO4)C(=O)C(=O)N2CCCOC)c2ccccc21", "note": "(configuration not stated)", "inhibition": "inconclusive: 32.3%"}, {"compound": "C[C@@H]1CN([C@@H](C)CO)S(=O)(=O)c2ccc(-c3ccc(C(=O)N(C)C)cc3)cc2O[C@H]1CN(C)C(=O)C1CCOCC1", "inhibition": "inconclusive: 36.2%"}]}]}
